# According to PubChem BioAssay AID624418 (National Center for Advancing Translational Sciences (NCATS), 2012):
# About 530 (0.13%) of roughly 410,000 compounds were called active. The inconclusive results got no clear call from the source; some entries with a clear call stand among them for comparison. Calls follow the shape of the dose curve; as a rule, active = well fitted inhibition curve with a large enough effect; inconclusive = small, poorly fitted or top-dose-only effect, or another doubt; inactive = no such curve, though single readings can be large or run the other way. Potencies beside an inconclusive call are fits to weak or partial responses and may not hold up.
# Assay: qHTS of GLP-1 Receptor Inverse Agonists: Cytotox Screen
# Settings: HEK293 cAMP-luciferase reporter cells, luminescence, 24 h; activity change, negative = inhibition: at 38.3 µM (top of the series) unless noted
# In short: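 MLSMR compounds, 24 hr on cells at 37 deg C/5% CO2; luminescence after luciferase reagent (12 min RT). Inhibition counted as the undesired cytotoxic outcome.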
# % is scaled to controls: 0 for no effect and ±100 for the full control effect; potency is read from the fitted curve at half-maximal effect.
Structure (SMILES),Potency,"activity change, negative = inhibition"
CCC(C)NCCOCCOc1ccc(C)cc1Br (stereo unspecified),"inconclusive: 12.6 µM [inhibitor, single point]",
COc1cc(/C=C(/C(=O)c2cccs2)c2nc3ccccc3[nH]2)cc(OC)c1O,"inconclusive: 20 µM [inhibitor, single point]",
O=C(Nc1ccccc1C(F)(F)F)c1ccc(CN2CCC(Cc3ccccc3)CC2)cc1,"inconclusive: 11.2 µM [inhibitor, single point]",
COc1cc(-c2nc3ccccn3c2/N=C/c2cccc(OC)c2O)ccc1O,"inconclusive: 28.2 µM [inhibitor, single point]",
O=C(Cn1nc(Cc2cccnc2)c2ccccc2c1=O)Nc1cc(F)ccc1F,"inconclusive: 0.501 µM [inhibitor, full curve, poor fit]",
C=CCNC(=S)NNC(=O)CSc1nc2ccccc2s1,"inconclusive: 12.6 µM [inhibitor, single point]",
O=C(Nc1nc(-c2ccccn2)cs1)c1ccc(-c2ccccc2F)o1,"inconclusive: 20 µM [inhibitor, single point]",
CCOC(=O)c1c(C)oc2c1c(C=NCc1ccccn1)c(O)c1ccccc12,"inconclusive: 11.2 µM [inhibitor, single point]",
NS(=O)(=O)c1ccc(N=Nc2ccc(=O)[nH]c2O)cc1,"inconclusive: 10 µM [inhibitor, partial curve, poor fit]",
CC(NC(=O)/C(C#N)=C/c1ccc(OCC(=O)O)cc1)c1ccccc1 (stereo unspecified),,inactive: 1.11%
CN(C)/C=N/C1=C(C#N)C(c2cccs2)c2ccc3ccccc3c2O1 (stereo unspecified),"inconclusive: 10 µM [inhibitor, single point]",
O=C1CC(c2ccccc2)Cc2nc3nc(C(F)(F)F)nn3cc21 (stereo unspecified),,inactive: 40.2%
CC(C)OC(=O)c1ccc(NC(=O)c2cccc(-n3cnnn3)c2)cc1,,inactive: -24%
CC1=NN(c2ccccc2)C(=O)/C1=C/c1c(O)n(-c2ccc(F)cc2)[nH]c1=O,"inconclusive: 10 µM [inhibitor, partial curve, poor fit]",
Cc1oc(-c2ccc(Cl)cc2)nc1CS(=O)CC(=O)NCCCN1CC(C)CC(C)C1 (stereo unspecified),"inconclusive: 22.4 µM [inhibitor, partial curve, poor fit]",
Cc1cccc(N2CCN(C(=O)CCCSc3nc4ccccc4[nH]3)CC2)c1C,,inactive: -16.4%
COc1ccc(Oc2cnc3ccccc3n2)cc1,,inactive: 0.144%
CN(c1ccccc1)S(=O)(=O)c1cccc(NC(=O)Cc2ccc(Cl)cc2)c1,"inconclusive: 10 µM [inhibitor, single point]",
Cc1cccc(C(=O)Nc2ccccc2OCc2cc(=O)n3cc(C)ccc3n2)c1,,inactive: 1.66%
N#Cc1cc2c([nH]c1=O)CCCC2,,inconclusive: -30.9% [inhibitor]
CCOc1cc(C#N)c(NC(=O)c2ccco2)cc1OCC,"inconclusive: 5.62 µM [inhibitor, partial curve, poor fit]",
Cc1cccc(C(=O)NCCNc2nc3cc(C)c(C)cc3cc2C)c1,"inconclusive: 28.2 µM [inhibitor, single point]",
Cc1cccc(Nc2nc(N3CCCCC3)nc(N3CCCCC3)n2)c1,,inactive: -0.224%

Structure (SMILES),Potency,"activity change, negative = inhibition"
COC(=O)C1=C(CN2CCN(C)CC2)NC(=O)NC1c1cc(C)ccc1C (stereo unspecified),,inactive: -9.4%
CCN(CC)C(=O)C1CCN(Cc2ccc(OCc3ccccc3)cc2)CC1,,inactive: -6.02%
CCNC(=S)N/N=C(\C)c1ccc(N2CCOCC2)cc1,"inconclusive: 31.6 µM [inhibitor, single point]",
C=CCNC(=S)NNC(=O)C(CCCC)CC(O)COCC(C)C (stereo unspecified),"inconclusive: 11.2 µM [inhibitor, partial curve]",
COc1ccc(C2=CC(=O)C[C@H](c3ccc(OC)c(OC)c3)C2)cn1,"inconclusive: 8.91 µM [inhibitor, partial curve]",
COc1cc(/C=N/NC(=S)NCc2ccccc2)ccc1OCC#N,"inconclusive: 10 µM [inhibitor, single point]",
CC(=O)Nc1cccc(-c2ccnc3c2CC(C(=O)NCc2cccs2)O3)c1 (stereo unspecified),"inconclusive: 2 µM [inhibitor, full curve]",
ON=C1c2cc(OCCN3CCCCC3)ccc2-c2ccc(OCCN3CCCCC3)cc21,active: 3.55 µM,
CC1=C(C(=O)OC(C)C)C(c2ccc(Br)s2)NC(=O)N1 (stereo unspecified),"inconclusive: 10 µM [inhibitor, partial curve]",
CCOc1ccccc1N1CCN(c2nc3ccccc3nc2C(C#N)C(=O)OC)CC1 (stereo unspecified),,inactive: 8.93%
CCCc1nc(SC)[nH]c(=O)c1C,,inactive: 0.0187%
CC1(C)CC(=O)C2=C(C1)NC(=O)CC2c1ccc(N(CCC#N)CCC#N)cc1 (stereo unspecified),"inconclusive: 8.91 µM [inhibitor, partial curve, poor fit]",
CC(C)Nc1nnc(SCC(=O)Nc2ccc3c(c2)C(=O)c2ccccc2C3=O)s1,"inconclusive: 14.1 µM [inhibitor, single point]",
Cn1ccnc1C(O)(c1nnc(-c2ccccc2)o1)C(F)(F)F (stereo unspecified),"inconclusive: 28.2 µM [inhibitor, single point]",
N#Cc1cc(-c2ccccc2)nc(NN)n1,"inconclusive: 20 µM [inhibitor, single point]",
Cc1cccc(C)c1NC(=O)CN1CCN(C/C=C/c2ccccc2)CC1,,inactive: -5.1%
Cc1ccc(-c2nn(-c3ccccc3)cc2CSC(=N)N)cc1,"inconclusive: 28.2 µM [inhibitor, single point]",
CC1(C(=O)NCc2ccccc2)CN(S(C)(=O)=O)CC(=O)N1CCc1ccc(O)cc1 (stereo unspecified),,inactive: -5.35%
O=S(=O)(Nc1cccc(-c2ccc(N3CCOCC3)nn2)c1)c1ccc(F)c(C(F)(F)F)c1,"inconclusive: 0.501 µM [inhibitor, full curve, poor fit]",
OC(CN1CCN(c2ccccc2Cl)CC1)c1ccccc1 (stereo unspecified),"inconclusive: 28.2 µM [inhibitor, single point]",
CCN1CCN(C(=O)C2CCN(C(=O)c3cc4sccc4n3CC)CC2)CC1,,inactive: -1.07%
Cc1cc(=O)oc2cc(OC(C)C(=O)Nc3ccc(N4CCCCC4)cc3)ccc12 (stereo unspecified),,inactive: 3.07%
O=[N+]([O-])c1ccc(Sc2cc[n+]([O-])c3ccccc23)c([N+](=O)[O-])c1,,inactive: 0%
